Measured values reported in paper PMC5131612 (Journal of Structural Biology, 2016).

B1: USP12 F287A (enzyme)
chain: not shown
B2: USP12 R217E (enzyme)
chain: not shown
B3: USP12 R285D (enzyme)
chain: not shown
B4: USP12_(E190K) (enzyme)
chain: not shown

target: UAF1FL, UAF1 (9-677) (human, UniProt Q8TAF3 9-677); test: SPR

Binding result, binds:
B1
B2
B3
B4
